This note sets out measurements from the supplement of paper PMC4604168 (melanoma cell lines).

Assay in all cases: cell count relative to DMSO control; melanoma cells; higher = more viable cells
What all share (settings): library dose: standard library concentration; 72 h

The subject of assay [1] is SkMel28.
For assay [2], the system named is SkMel2.
Assay [3] relates to SkMel30.
For assay [4], the system named is SkMel5.
Assay [5] concerns UACC257.
Assay [6] concerns UACC62.
Assay [7] deals with WM115.
The subject of assay [8] is WM1716.
Assay [9] concerns WM3526.
In assay [10] the test system is WM1745.

Some of the results follow. Single values are uncertain, as repeats are few or missing.
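Further: cells treated in 1,536-well plates, then fixed and DAPI-stained, with nuclei counted from automated high-throughput microscope images.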

Turning to `CCCS(=O)(=O)Nc1ccc(F)c(C(=O)c2c[nH]c3ncc(Cl)cc23)c1F` + Oc1cc(-c2nc(-c3ccccc3)[nH]c2-c2ccncc2)ccc1Cl [L779450] (first compound 0.4 µM, partner dose 1 µM), the cell count turned out to be 42.5% in assay [1]; 26.3% in assay [2]; 88% in assay [3]; 61.5% in assay [4]; 81.8% in [5]; 47.7% in [6]. The cell count was 47.6% in assay [7], 56.1% in [8] and 47% in assay [9].

As to `C=C(c1ccc(C(=O)O)cc1)c1cc2c(cc1C)C(C)(C)CCC2(C)C` [Bexarotene] + COc1cc2ncnc(Nc3ccc(Oc4ccccc4)cc3)c2cc1OC [SrcI1] (first compound 10 µM, partner dose 10 µM), the cell count in [1] was determined as 64.6%; in assay [2] it was 80.9%; in assay [3] it was 110%; in [4] it was 62.2%; in assay [5] it was 98%; in assay [6] it was 88.8%. In addition, the figures for the cell count in assay [7], in assay [8] and in assay [9] were 94.9%, 68.6% and 65.3%, respectively.

For `CS(=O)(=O)c1ccc(C(=O)Nc2ccc(Cl)c(-c3ccccn3)c2)c(Cl)c1` [vismodegib] + O=C(O)[C@@H]1[O][Sb](=[O])([O][Sb]2(=[O])[O][C@H]([C@H](O)CO)[C@H](O)[C@H](C(=O)O)[O]2)[O][C@H]([C@H](O)CO)[C@@H]1O [stibogluconate] (first compound 5 µM, partner dose 10 µM), the cell count in assay [1] was determined as 122%; in assay [2], 101%; in [3], 109%; in [4], 103%; in assay [5], 103%; in assay [6] it was 82.3%. The cell count was 102% in [7], 96.3% in assay [8], 106% in assay [10] and 89.1% in assay [9].

In the case of `CCCS(=O)(=O)Nc1ccc(F)c(C(=O)c2c[nH]c3ncc(Cl)cc23)c1F` + COC(=O)c1sccc1S(=O)(=O)Nc1ccc(Nc2ccccc2)cc1OC [GSK0660] (first compound 0.4 µM, partner dose 5 µM), the cell count in assay [1] worked out at 37.1%; in assay [2], 83.7%; in assay [3], 91.9%; in assay [4], 72.8%; in [5], 84.5%; in [6], 58.2%. Further, the cell count in assay [7] is 73%; in assay [8], 59.7%; in assay [9], 54.7%.

`CS(=O)(=O)c1ccc(C(=O)Nc2ccc(Cl)c(-c3ccccn3)c2)c(Cl)c1` [vismodegib] + COc1ccc(COc2ccc(Cc3cnc(N)nc3N)cc2OC)cc1 [GW2580] (first compound 5 µM, partner dose 5 µM): the cell count is 142% in [1]; 104% in assay [2]; 90.7% in assay [3]; 112% in assay [4]; 92.7% in assay [5]; 79.7% in assay [6]. The cell count in [7] was determined as 102%; in [8] it was 99.9%; in [9] it was 94.2%.

With `C=C(c1ccc(C(=O)O)cc1)c1cc2c(cc1C)C(C)(C)CCC2(C)C` [Bexarotene] + C=CCn1c(=O)c2cnc(Nc3ccc(N4CCN(C)CC4)cc3)nc2n1-c1cccc(C(C)(C)O)n1 [MK1775] (first compound 10 µM, partner dose 0.1 µM), the cell count in [1] is 43.6%; in [2], 79.8%; in assay [3], 77.5%; in assay [4] it was 70%; in assay [5], 99.9%; in assay [6], 59%. The cell count in [7] worked out at 102%; in assay [8] it was 73.7%; in assay [10] it was 54.3%; in [9], 74.4%.

On to `CS(=O)(=O)c1ccc(C(=O)Nc2ccc(Cl)c(-c3ccccn3)c2)c(Cl)c1` [vismodegib] + O=C(O)C(=O)Nc1sc2c(c1C(=O)O)CCNC2 [TCS401] (first compound 5 µM, partner dose 8.33333 µM), for which the cell count in [1] amounted to 103%; in assay [2] it was 98.5%; in [3], 138%; in assay [4], 63.5%; in assay [5] it was 92.2%; in assay [6] it was 98.2%. Moreover, the cell count in [7] was found to be 121%; in assay [8], 82.6%; in assay [9], 97.8%.

For the molecule `CCCS(=O)(=O)Nc1ccc(F)c(C(=O)c2c[nH]c3ncc(Cl)cc23)c1F` + O=c1cc(-c2cccc3c2Sc2ccccc2S3)oc(N2CCOCC2)c1 [KU55933] (first compound 0.4 µM, partner dose 5 µM), the cell count amounted to 49.4% in assay [1]; 88.2% in [2]; 96% in assay [3]; 69.3% in assay [4]; 85.8% in assay [5]; 42.7% in assay [6]. Besides, the figures for the cell count in [7], in assay [8] and in assay [9] were 51.1%, 58.8% and 55%, respectively.

In the case of `NC1(c2ccc(-c3nc4ccn5c(=O)[nH]nc5c4cc3-c3ccccc3)cc2)CCC1` + COC(=O)c1sccc1S(=O)(=O)Nc1ccc(Nc2ccccc2)cc1OC [GSK0660] (first compound 2 µM, partner dose 5 µM), the cell count was 61.6% in [1]; 78% in assay [2]; 90.2% in [3]; 71.8% in assay [4]; 87.1% in assay [5]; 71.4% in assay [6]. Moreover, the cell count was 59.7% in assay [7], 77.8% in [8] and 71.2% in assay [9].

Turning to `CN(c1ncccc1CNc1nc(Nc2ccc3c(c2)CC(=O)N3)ncc1C(F)(F)F)S(C)(=O)=O` + COC(=O)c1sccc1S(=O)(=O)Nc1ccc(Nc2ccccc2)cc1OC [GSK0660] (first compound 0.4 µM, partner dose 5 µM), the cell count stood at 74.1% in assay [1]; 71.1% in assay [2]; 88.5% in assay [3]; 73.5% in assay [4]; 71.9% in assay [5]; 83.8% in assay [6]. In addition, the cell count in assay [7] came to 73.7%; in [8], 80.7%; in assay [9] it was 89%.

As for `CN(c1ncccc1CNc1nc(Nc2ccc3c(c2)CC(=O)N3)ncc1C(F)(F)F)S(C)(=O)=O` + COc1ccc(-c2ccc3c(N4CCOCC4)nc(N4C[C@@H](C)O[C@@H](C)C4)nc3n2)cc1CO [KU0063794] (first compound 0.4 µM, partner dose 0.1 µM), the cell count in assay [1] came out at 84.1%; in assay [2] it was 73.1%; in [3] it was 112%; in [4] it was 79.4%; in assay [5], 91.6%; in [6], 74.6%. Besides, the cell count in assay [7] came out at 93.1%; in [8], 83.9%; in [9], 109%.

As for `CN(c1ncccc1CNc1nc(Nc2ccc3c(c2)CC(=O)N3)ncc1C(F)(F)F)S(C)(=O)=O` + Cn1cc(/C=C2\C(=O)Nc3cccnc32)c2ccccc21 [GW441756] (first compound 0.4 µM, partner dose 2 µM), the cell count came to 47.7% in assay [1]; 71.1% in assay [2]; 80.5% in assay [3]; 47.3% in [4]; 71.2% in assay [5]; 69.4% in [6]. Moreover, the cell count in assay [7] came to 75.7%; in [8], 60.1%; in [9], 78.3%.

On to `CS(=O)(=O)c1ccc(C(=O)Nc2ccc(Cl)c(-c3ccccn3)c2)c(Cl)c1` [vismodegib] + Oc1cc(-c2nc(-c3ccccc3)[nH]c2-c2ccncc2)ccc1Cl [L779450] (first compound 5 µM, partner dose 1 µM), for which the cell count in assay [1] was found to be 49.7%; in assay [2] it was 31.8%; in [3], 104%; in [4], 67.5%; in assay [5], 102%; in [6], 33.2%. Further, the cell count in assay [7] was 51.5%; in [8], 87.8%; in [9], 63.5%.

In the case of `NC1(c2ccc(-c3nc4ccn5c(=O)[nH]nc5c4cc3-c3ccccc3)cc2)CCC1` + CN1CCN(c2ccc3nc(-c4c(N)c5c(F)cccc5[nH]c4=O)[nH]c3c2)CC1 [Dovitinib] (first compound 2 µM, partner dose 0.5 µM), the cell count in assay [1] came out at 34.6%; in [2], 43.4%; in assay [3], 71.9%; in [4], 46.7%; in assay [5] it was 74.7%; in assay [6] it was 66.9%. Moreover, the cell count stood at 53.5% in [7], 64.5% in assay [8], 46.9% in assay [10] and 47.1% in assay [9].

Consider `CCCS(=O)(=O)Nc1ccc(F)c(C(=O)c2c[nH]c3ncc(Cl)cc23)c1F` + COc1cc(N2CCC(N3CCN(C)CC3)CC2)ccc1Nc1ncc(Cl)c(Nc2ccccc2S(=O)(=O)C(C)C)n1 [NVP-TAE684] (first compound 0.4 µM, partner dose 0.4 µM), for which the cell count in [1] was determined as 60.1%; in assay [2], 74%; in [3], 121%; in assay [4], 62.4%; in assay [5], 85.4%; in assay [6], 50.7%. Further, the cell count in assay [7] was determined as 51%; in assay [8], 73.9%; in [9] it was 56%.
